From PubChem BioAssay AID1645887 (National Center for Advancing Translational Sciences (NCATS), 2021)
Where “and” joins values, the source holds several entries; their conditions need not be identical. Identical values can stand only once. Out of some 16,000 compounds screened, about 40 (0.2%) were called active. Another 1% or so got no clear call; they are omitted. Calls come from the whole dose curve; as a rule, active = well fitted activation curve with a large enough effect; inconclusive = small, poorly fitted or top-dose-only effect, or another doubt; inactive = no such curve, though single readings can be large or run the other way. Some of the results follow.

Biological target: Rap guanine nucleotide exchange factor 4 (Homo sapiens) (UniProt Q8WZA2)
UniProt Q8WZA2, sequence (Q8WZA2 whole entry, looked up): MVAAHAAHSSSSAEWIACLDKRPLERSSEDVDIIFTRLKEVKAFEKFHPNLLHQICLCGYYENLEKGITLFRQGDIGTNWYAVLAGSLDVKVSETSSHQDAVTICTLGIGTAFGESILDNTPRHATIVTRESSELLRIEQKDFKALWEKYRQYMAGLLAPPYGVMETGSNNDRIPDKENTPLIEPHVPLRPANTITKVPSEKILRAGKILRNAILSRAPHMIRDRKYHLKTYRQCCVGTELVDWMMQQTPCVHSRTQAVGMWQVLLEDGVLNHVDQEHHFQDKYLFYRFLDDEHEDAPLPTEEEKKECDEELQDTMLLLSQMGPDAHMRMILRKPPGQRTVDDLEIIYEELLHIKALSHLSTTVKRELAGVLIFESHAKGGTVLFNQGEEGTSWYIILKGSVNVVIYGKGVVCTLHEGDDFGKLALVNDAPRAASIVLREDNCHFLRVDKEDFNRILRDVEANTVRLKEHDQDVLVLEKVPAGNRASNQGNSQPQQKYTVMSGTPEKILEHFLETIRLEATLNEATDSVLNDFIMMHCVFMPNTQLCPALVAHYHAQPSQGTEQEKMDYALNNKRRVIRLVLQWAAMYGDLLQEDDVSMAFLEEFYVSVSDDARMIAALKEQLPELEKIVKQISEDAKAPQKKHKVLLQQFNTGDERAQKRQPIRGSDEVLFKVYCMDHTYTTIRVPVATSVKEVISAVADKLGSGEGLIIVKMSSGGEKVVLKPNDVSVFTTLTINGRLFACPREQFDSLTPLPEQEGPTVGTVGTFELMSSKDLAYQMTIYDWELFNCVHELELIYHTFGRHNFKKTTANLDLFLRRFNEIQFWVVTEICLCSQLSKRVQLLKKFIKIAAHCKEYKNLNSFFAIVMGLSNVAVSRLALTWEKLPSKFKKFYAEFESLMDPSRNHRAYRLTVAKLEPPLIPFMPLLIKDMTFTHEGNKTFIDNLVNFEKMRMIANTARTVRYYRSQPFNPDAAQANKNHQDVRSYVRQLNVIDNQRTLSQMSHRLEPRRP
Experiment: Validation qHTS for agonist of cAMP-regulated guanine nucleotide exchange factor 4 (EPAC2);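 note: exchange makes BODIPY-GDP fluorescence drop when released from Rap1B; series mostly up to about 150 µM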
Details: EPAC2 Rap1B BODIPY-GDP exchange, fluorescence; activation: active compounds read high
How it was run: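 Signal normalized against 6.5 mM cAMP as agonist control. Mix of EPAC2 (100 nM), RAP1B-BODIPY-GDP (250 nM) and GDP (50 uM) was read kinetically at 480/540 nm, every 5 min over 30 min, after 5 min room-temperature incubation with compound.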
% is set by controls: 0 for no effect and ±100 for the full control effect.

activation, inactive:
Cc1ncc2c(c1CNC(=O)c1cncs1)CCN(C(=O)c1ccsc1)C2 -6.32%
C=C1C2=CC(=O)OC(c3ccoc3)[C@]2(C)CCC1[C@]1(C)C=CC(=O)C(C)(C)C1CC(=O)OC (some centres not stated) -38.4%
COc1c(C2=CC(=O)N(C)C2=O)c2c(n1C)C(=O)c1ccccc1C2=O -11.5%
COc1ccc(-c2coc3cc(O)cc(O)c3c2=O)cc1 -21.6% and -19.2%
Cn1cc(-c2nc3cnc(OCc4ccccc4)nc3n(CCC#N)c2=O)c2ccccc21 1.5%
CCCCC1=NC2(CCCC2)C(=O)N1Cc1ccc(-c2ccccc2-c2nn[nH]n2)cc1 -12.8%
Cc1cnc(CNc2nc(-c3cccc(NS(C)(=O)=O)c3)nc3ccccc23)cn1 -10.5%
OCC1OC(n2cnc3c(=S)nc[nH]c32)C(O)C1O (configuration not stated) -5.59%
Nc1nc2c(nc(Sc3ccc(Cl)cc3)n2C2OC(CO)C(O)C2O)c(=O)[nH]1 (configuration not stated) 0.176%
C[C@H](NC(=O)/C(C#N)=C/c1ccc(O)c(O)c1)c1ccccc1 -24.8% and -59.2%
O=S(=O)(NCCNC/C=C/c1ccc(Br)cc1)c1cccc2cnccc12 2.57% and 0.593%
C[S+](CC[C@H](N)C(=O)O)C[C@H]1O[C@@H](n2cnc3c(N)ncnc32)[C@H](O)[C@@H]1O (some centres not stated) 2.15% and -16.9%
COCCNc1ncncc1-c1ccccc1OC 0.0196%
OCC(O)CN1CCN(c2ccccc2)CC1 (configuration not stated) -6.04%
COc1cccc2c3c(c(C)nc12)CC(CO)O3 (configuration not stated) -2.38%
N#Cc1cccc(-c2cncnc2-n2ccnc2)c1 0.245%
Cc1cc(C(=O)Nc2ccccc2-c2nc(CNC(=O)c3sc(C)nc3C)c(C)o2)c(C)o1 -6.12%
COCCn1c(=O)c(CCc2ccccc2)nc2cnc(OC)nc21 -5.77%
O=c1c(-c2cccs2)nc2cnc(N3CCOCC3)nc2n1Cc1cccs1 -2.33%
CN(Cc1ccco1)c1cc(-c2cccnc2)ncn1 -2.39%
CN1Cc2sccc2C(c2ccc(O)c(O)c2)C1 (configuration not stated) -11.1%
COc1cc2c(cc1OC)C(=O)OC2 -5.42%
CN1CCN(c2ncc3nc(-c4cccc(C#N)c4)c(=O)n(CCc4ccccc4)c3n2)CC1 1.3%
COc1ccccc1N1CCN(CCN2C(=O)CC3(CCCC3)CC2=O)CC1 -4.65% and -12% and -19.2%
CC[C@H](C)N(C)C(=O)c1cc2ccccc2c(-c2ccccc2Cl)n1 -26.6%
CC(O)(COc1ccccc1)c1ccc2c(c1)CN(Cc1cccn1-c1ccccn1)CCO2 (configuration not stated) -12.6%
CC(=O)N1CCC2(CC1)CCN(c1ncccn1)CC2 -1.55%
C=C1CC2C3CCC4=CC(=O)C=C[C@]4(C)[C@@]3(F)[C@@H](O)C[C@]2(C)[C@@]1(O)C(=O)COC(C)=O (some centres not stated) -5.09%
COC(=O)[C@H]1C(OC)[C@@H](OC(=O)c2cc(OC)c(OC)c(OC)c2)C[C@@H]2CN3CCc4c([nH]c5cc(OC)ccc45)[C@H]3C[C@H]21 (some centres not stated) 4.12%
O=c1c(-c2ccc(F)cc2)nc2cnc(Nc3ccccc3)nc2n1Cc1cccs1 4.73%
Cc1cccc(CNc2ncnc3ccc(-c4c(C)noc4C)cc23)c1 -1.15%
CCC1CN(Cc2ccc(COC)o2)Cc2cc(OC)ccc2O1 (configuration not stated) -4.26%
COc1cccc(Cn2c(=O)c(-c3cc(F)cc(F)c3)nc3cnc(OC)nc32)c1 1.52%
CN(C)CCC(c1ccc(Cl)cc1)c1ccccn1 (configuration not stated) -4.9%
COc1cc(N)c(Cl)cc1C(=O)NC1CCN(CCCOc2ccc(F)cc2)CC1OC (configuration not stated) -18.4%
C[C@H](O)C(=O)C1=Nc2c(nc(N)[nH]c2=O)NC1 21.3%
C[C@H]1C[C@H]2[C@@H]3CCC4=CC(=O)C=C[C@]4(C)[C@@]3(F)[C@@H](O)C[C@]2(C)[C@@]1(O)C(=O)CCl -13.5%
COc1ccc2cc1Oc1ccc(cc1)C[C@H]1c3c(cc4c(c3Oc3cc5c(cc3OC)CCN(C)[C@@H]5C2)OCO4)CCN1C -6.67%
COc1cc(C(O)C(=O)O)ccc1O (configuration not stated) 7.62% and -17.2%
COCCNc1ncncc1-c1c(C)noc1C -2.64%
Cc1ccc(C(=O)N(Cc2cc3cc4c(cc3nc2N2CCOCC2)CCC4)CC2CCCO2)cc1 (configuration not stated) -6.83%
O=C(O)c1ccccc1Nc1cccc(OCc2ccc3ccccc3n2)c1 7.41% and -13%
CC(=O)c1ccc(C(=O)NCc2nc(-c3ccccc3NC(=O)c3cc(C)oc3C)oc2C)cc1 -4.73%
CC(=O)NCCc1c(Cc2ccccc2)[nH]c2ccccc12 -17.5% and 2.98%
CN(C)CC/C=C1/c2ccccc2COc2ccccc21 -4.6%
c1cncc(-c2ccc3ncnc(NCCN4CCOCC4)c3c2)c1 -14.5%
COc1ncc2nc(-c3ccccc3)c(=O)n(-c3ccccc3)c2n1 -16.7%
O=C(c1cccc(F)c1)N1CCC2(CC1)CN(c1ccc(-c3ccccc3)cc1)C2 -11.2%
COc1ccc(C2OC3C(CO)OC(n4cnc5c(=O)[nH]c(N)nc54)C3O2)cc1 (configuration not stated) -2.86%
O=C(COCCOCCOCC(=O)Nc1c(I)cc(I)c(C(=O)O)c1I)Nc1c(I)cc(I)c(C(=O)O)c1I -3.4%
O=C(N[C@H]1CCC(=O)N([C@H](CSc2ccc(Br)cc2)Cc2ccccc2)CC1)OCc1ccccc1 -3.76%
C=CCOc1cc(Cl)ccc1C(=O)NCCN(CC)CC -8.15%
